Hit rate of the full screen: of about 46,000 compounds, about 60 (0.1%) were called active. Not shown: some 3% with an inconclusive outcome. Calls come from the whole dose curve; as a rule, active = well fitted inhibition curve with a large enough effect; inconclusive = small, poorly fitted or top-dose-only effect; inactive = no such curve, though single readings can be large or run the other way. This is one part of the list.
test: Primary qHTS assay for Inhibitors of ovarian cancer metastasis using an organotypic tumor microenvironment (TME) model.; note: nearly all actives have a fitted effect of over 65% in size;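 for activity change, negative = inhibition: plate controls were DMSO wells for no effect and tomatine positive control wells for full effect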; conditions: SKOV3ip1-GFP adhesion/invasion on 3D omental model, fluorescence; series mostly up to 45.8 µM; activity change, negative = inhibition: at the top concentration
Outline: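 qHTS, 4-pt dose (0.36-46 umol/L); SKOV3ip1-GFP, 1,200 cells/well, no FBS; primary omental fibroblast/mesothelial co-culture 48 h pre-grown; 2 h RT + 16 h 37 C; PBS wash, 4% PFA; GFP count 488/509 nm.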

Activity change, negative = inhibition, inactive:
CCOC(=O)N1CCC2(CC1)OC(=O)C(C)=C2C(=O)NCc1ccccc1OC 0.57%
Cn1cnc(S(=O)(=O)N2CCC(C(=O)Nc3ccc(Cl)c(C(F)(F)F)c3)CC2)c1 -4.06%
CCc1nnc2c(Nc3ccccc3Br)nc3ccccc3n12 -1.19%
Cc1nn(CCC(=O)Nc2ccccc2Br)c(=O)c2nn(-c3ccccc3)c(C)c12 10.9%
Cc1cccc(CCNC(=O)CCS(=O)(=O)c2cc3c(cc2C)NC(=O)CO3)c1 -28.7%
CCCn1cc(S(=O)(=O)c2cccc(Cl)c2)c(=O)c2cc(F)c(N3CCCC3)cc21 -15%
Cc1cc(Cl)ccc1OCC(=O)N(Cc1ccc(N(C)C)cc1)C1CCS(=O)(=O)C1 (stereo not drawn) 2.06%
Cc1cccc(C(C)C)c1NC(=O)c1ccc2c(c1)CCCN2S(C)(=O)=O -6.68%
CC(=O)N1CCCC1c1nc2ccccc2n1Cc1ccccc1F (stereo not drawn) -5.81%
CCCCCN(C)CCC(O)(P(=O)(O)O)P(=O)(O)O 3.59%
CCc1cc(=O)[nH]c(SCc2nc(-c3ccc(C(F)(F)F)cc3)no2)n1 2.1%
Cc1ccc(S(=O)(=O)N(CC(=O)NCCSc2ccc(Cl)cc2)c2cccc(Cl)c2)cc1 -3.45%
CC(C)OCCCNC(=O)CN1C(=O)c2ccccc2Sc2ncccc21 23%
Fc1ccc(N2CCN(c3ncnc4[nH]ncc34)CC2)cc1 3.46%
Cc1oc2ncnc(N3CCOCC3)c2c1C(=O)NCc1ccc(Cl)cc1 1.84%
N#C/C(=C\c1ccc(-c2cccc(Cl)c2)o1)C(=O)Nc1cccc(C(F)(F)F)c1 -1.18%
CCOc1ccc(CC(=O)N2CCc3cc(OC)c(OC)cc3C2COc2ccc3c(C)cc(=O)oc3c2)cc1 (stereo not drawn) 1.26%
Cc1cc(=O)oc2cc(OCC(=O)Nc3ccc(O)c(C(=O)O)c3)ccc12 -7.29%
CCCn1cnc2cc(NCc3ccc(OC)cc3OC)ccc21 0.266%
Cc1ccc(NC(=O)c2sc(-n3nc(C)c(Cc4ccc5c(c4)OCO5)c3C)nc2C)cc1Cl -29.6%
COc1ccc(CNC(=O)Cc2c(C)c3c(cc(C)c4c(C)c(C)oc43)oc2=O)cc1OC -9.97%
CCN(CC)S(=O)(=O)c1ccc2c(c1)N(CC(=O)NCCCN1CCN(c3cc(Cl)ccc3C)CC1)C(=O)CO2 -26.3%
Cc1cccc(Cn2c(SCc3ccc(C(=O)NC4CCCC4)cc3)nc3ccncc32)c1 -12.5%
CCCOc1ccc(NC(=O)C(=O)NCCCN2CCOCC2)cc1 -7.77%
CCCCCn1c(=O)[nH]c2cc(C(=O)NCc3ccccc3)ccc2c1=O 8.31%
Cc1ccc(CNC(=O)CS(=O)(=O)Cc2nc(-c3ccccc3C)oc2C)cc1 0.707%
CC(C)CNS(=O)(=O)c1ccc(N2CCCCS2(=O)=O)cc1 15%
Cc1ccc(CNC(=O)c2cc3c(s2)-c2c(C)cccc2OC3)cc1 0.451%
CCOC(=O)c1c(NC(C)=O)c2c3c(sc2n1Cc1nc(-c2ccccc2Cl)oc1C)CCCC3 -7.86%
COc1ccc(CC(=O)Nc2ccc3nc(N4CCCCC4)cc(C)c3c2)cc1 -18.6%
COc1ccc(Cn2c(=O)c3ccccc3n3c(-c4cccc(OC)c4OC)nnc23)cc1 12.6%
COc1ccc(CNCc2c(C(=O)O)n(Cc3ccc(F)cc3)c3cc(C)ccc23)cc1OC 5.97%
CCC(=O)N1CCc2cc(Br)cc(S(=O)(=O)CCC(=O)Nc3cccc(C)c3C)c21 -16.2%
CCOCCCNC(=O)c1ccc(-n2c(-c3ccccc3)cc3c2CCCCC3)cc1 -3.48%
COc1ccc2c(c1)c1c(c(=O)n(Cc3ccccc3)c(=O)n1CC(=O)NCc1ccccc1)n2C -7.81%
CC(C)OC(=O)C(C(=O)OC(C)C)=C1SC=CS1 0.932%
CCOC(=O)c1c(C)c(-c2ccccc2)n(CC(=O)NCCc2cccc(C)c2)c1C -4.87%
COCCn1c(C)cc(O)c(C(c2ccc(F)cc2)N2CCN(c3ccccc3)CC2)c1=O (stereo not drawn) 4.85%
O=C(CSc1nc(=O)[nH]c2c1CCCC2)NCc1ccc(F)cc1 -1.69%
Cc1cccc(C(=O)NC2=NC(c3ccc(Cl)cc3)CC(=O)N2)c1 (stereo not drawn) 0.203%
CCc1cc(=O)[nH]c(SCc2nc(-c3ccccc3)no2)n1 -7.7%
CCCOc1ccc(C(=O)Nc2ccc(NC(=O)c3ccccc3)c(C)c2)cc1 -6.66%
Cc1nnc2c(N3CCN(c4ccccc4F)CC3)nc3ccc(C(=O)c4ccccc4)cc3n12 -10.9%
CSc1ccc(CCNC(=O)c2cc3cc(S(=O)(=O)N4CCCCC4)ccc3n2C)cc1 -12.5%
Cc1ccccc1Nc1c(-c2ccccc2)nc2cccc(C)n12 10.4%
Cc1cc(F)ccc1NC(=O)CS(=O)(=O)c1cccc2nsnc12 -2.86%
CS(=O)(=O)Nc1ccccc1C(=O)OCc1cc(=O)n2nc(C3CCCCC3)sc2n1 29.5%
CCOC(=O)C1CCC(CN(Cc2ccc(OC)cc2)S(=O)(=O)c2ccc(F)c(C(=O)Nc3c(C)cccc3C)c2)CC1 (stereo not drawn) -1.94%
O=C(Nc1cccc(Cl)c1)C1CCCN(c2ncnc3c2nc2n3CCCCC2)C1 (stereo not drawn) -15.6%
COc1ccc2c(c1)sc1ncc(C(=O)NCc3cccc(C)c3)c(=O)n12 -2.76%
CC(C)c1ccc(NC(=O)Cn2nnc(C(=O)NCc3ccc(Cl)cc3)c2N)cc1 -13%
Cn1nc(C(=O)N2CCN(c3ccc(F)cc3)CC2)c2c1-c1ccccc1SC2 1.77%
CC1CCCN(S(=O)(=O)c2cc3c4c(c2)CC(=O)N4CCC3)C1 (stereo not drawn) 7.87%
COc1ccc(CCNC(=O)c2cn(C)c3ccc(S(=O)(=O)N(C)C)cc3c2=O)cc1OC 4.74%
CCS(=O)(=O)c1nc(S(=O)(=O)c2ccc(C)cc2)c(NC)s1 -1.69%
COc1cccc(CNCCCSc2nnnn2C)c1OC -9.1%
CC1CCCCN1C(=O)CCS(=O)(=O)c1cc2c(cc1Cl)NC(=O)CO2 (stereo not drawn) -1.6%
COc1ccc(NC(=O)CCc2nnc3n(Cc4ccc(C)cc4)c(=O)c4ccccc4n23)cc1 -7.51%
CCc1ccccc1NC(=O)Cn1ccn(Cc2ccccc2)c(=O)c1=O 1.06%
CC(=O)Nc1c(C)nn(-c2ccccc2)c1N1CCC(C(=O)Nc2ccccc2F)CC1 -5.68%
COc1ccc(NS(=O)(=O)c2ccc3[nH]c4c(c3c2)CCCCC4)cc1 4.62%
COc1ccc(NC(=O)c2ccco2)cc1NC(=O)c1c(OC)cccc1OC 7.95%
Cn1c2ccccc2c2cnn(CC(=O)NCCCN3CCN(c4ccccc4F)CC3)c(=O)c21 -8.75%
COc1ccc(CCNC(=O)c2ccc3c(c2)ncn3-c2ccc(C(C)C)cc2)cc1OC -1.34%
CC(=O)c1ccc(N2CCN(C(=O)Nc3ccc(C(C)C)cc3)CC2)cc1 -26.6%
O=C(Nc1ccccc1)N(Cc1cccc(Cl)c1)c1ccccn1 3%
COc1ccc(Cn2c(CO)cnc2SCc2ccccc2C)cc1 -3.37%
Cc1c(C)n(Cc2ccc(-c3ccccc3C(=O)O)cc2)c2ccc(C(=O)N[C@@H](C)c3ccc([N+](=O)[O-])cc3)cc12 2.59%
COc1ccc(CNC(=O)Cc2c(C)c3cc4c(C)coc4c(C)c3oc2=O)cc1OC 4.59%
CCOC(=O)c1c(S(=O)(=O)N2CCC(C(=O)Nc3ccc(F)cc3F)CC2)c(C)n(C)c1C -8.79%
COc1ccccc1NC(=O)C1=C(C)Nc2ncnn2C1c1cccn1C (stereo not drawn) -25.1%
CCOc1ccc(CN2C(=O)c3ccccc3C2C(=O)NCCc2ccc(OC)c(OC)c2)cc1 (stereo not drawn) 12.2%
Cc1ccc(C)c(NC(=O)C2CCN(c3cc(C)nc4c(-c5ccc(Cl)cc5)c(C)nn34)CC2)c1 4.31%
CCOc1ccc(CNS(=O)(=O)c2ccc3c(c2)CCCN3C(C)=O)cc1 -2.66%
CC1Cc2cc(S(=O)(=O)CCC(=O)NCc3ccccc3Cl)ccc2N1C(=O)C1CC1 (stereo not drawn) 3.8%
COc1ccccc1CC(=O)Nc1ccc2nc(Nc3cccc(Cl)c3)cc(C)c2c1 -18.4%

outcome, inactive:
Cc1ccc(NC(=O)CSc2nccn2C2CCCC2)cc1Cl
CCOC(=O)c1cc(-c2ccc(C)cc2)n(CC(=O)Nc2ccc(OC)cc2OC)c1C
CCC(C)NC(=O)c1cnn(-c2cccc(F)c2)c1-n1cccc1 (stereo not drawn)
Cc1ccc(OCC(=O)Nc2nonc2-c2ccc(Br)cc2)cc1
COc1ccc(N2CCN(C(c3ccc(F)cc3)c3sc4nc(-c5ccco5)nn4c3O)CC2)cc1 (stereo not drawn)
CCN1CCN(C(c2ccc(F)cc2)c2sc3nc(-c4ccco4)nn3c2O)CC1 (stereo not drawn)
CCCC(=O)Nc1ccc2nc(SCC(=O)N3CCOCC3)sc2c1
O=C(Nc1cccc2c1CCCC2)N1CCOc2ccc(Cl)cc21
Cc1cccc(-c2noc(CNC(=O)c3ccccc3Br)n2)c1
CC1CCN(S(=O)(=O)c2ccc3c(c2)oc(=O)n3CC(=O)O)CC1
Cc1cccc(NC(=O)C2CCN(c3cnccn3)CC2)c1
Cc1cc(C)cc(NC(=O)N2CCN(c3cc(-c4noc(C)n4)ccc3C)CC2)c1
CCc1nc(C)cn1S(=O)(=O)c1ccc(Cl)c(Cl)c1OC
N#Cc1ccccc1Cn1cnc2nc3c(cc2c1=O)CCCC3
COc1ccc(CC(=O)NCCS(=O)(=O)N2CCN(c3ccc(F)cc3)CC2)cc1OC
COc1ccccc1NC(=O)c1sc2nc3c(cc2c1N)CN(Cc1ccccc1)CC3
Cc1cccc(CC(=O)NCc2nc3cccnc3n2Cc2ccc(F)cc2)c1
COc1ccc(N2CC(NC(=O)C3CCCC3)CC2=O)cc1OC (stereo not drawn)
CCc1ccc(C(=O)c2cn(CC(=O)Nc3cc(F)ccc3F)c3nc(C)ccc3c2=O)cc1
CCN(C(=O)c1cn(CC(C)C)c(=O)c2cc(OC)c(OC)cc12)c1cc(OC)ccc1OC
COc1ccc(-n2cc(C(=O)Oc3cc(C)cc(C)c3)c3ccccc3c2=O)cc1
Cc1ccc(-n2c(SCC(=O)c3ccccc3)nc3c([nH]c4ccccc43)c2=O)cc1

From PubChem BioAssay AID1963576 (National Center for Advancing Translational Sciences (NCATS), 2024)
